Test results: paper PMC10233385, “Preparation of Mycobacterium smegmatis porin A (MspA) nanopores for single molecule sensing of nucleic acids” (Biophysics Reports, 2021)

Biological target: the molecule itself
Test: SDS-PAGE (oligomer that stays together in SDS); fractions of the Ni-affinity elution on a 4%-20% SDS-polyacrylamide gradient gel, 27 min at +200 V, Coomassie stain; the band around 100 kDa is taken as the MspA octamer

B1: M2 MspA mutant (D90N/D91N/D93N/D118R/D134R/E139K) of Mycobacterium smegmatis porin A (natural protein, UniProt A0QR29 28-211, looked up)
chain: GLDNELSLVDGQDRTLTVQQWDTFLNGVFPLDRNRLTREWFHSGRAKYIVAGPGADEFEGTLELGYQIGFPWSLGVGINFSYTTPNILINNGNITAPPFGLNSVITPNLFPGVSISARLGNGPGIQEVATFSVRVSGAKGGVAVSNAHGTVTGAAGGVLLRPFARLIASTGDSVTTYGEPWNMN
notes: Mycobacterium smegmatis porin A (MspA), M2 mutant; it is probably the mature porin without it (surmise); also called MspA octamer; MspA nanopore; not shown: His6, C-terminal, kept
stoichiometry N: 8
